Source: PubChem BioAssay AID652106 (National Center for Advancing Translational Sciences (NCATS), 2013)
Hit rate of the full screen: of about 370,000 compounds, about 500 (0.14%) were called active. Inconclusive results, whose numbers are uncertain, are shown with a selection of clear calls. The call rests on the fitted dose curve; in most records, active means well fitted activation curve with a large enough effect; inconclusive means small, poorly fitted or top-dose-only effect; inactive means no such curve, though single readings can be large or run the other way. Where the call is inconclusive, the potency comes from a doubtful curve fit.

assay: qHTS of alpha-syn Inhibitors; conditions: Yeast expressing alpha-synuclein, BacTiter-Glo, 24 h; Potency: growth rescue unless noted; growth rescue (activation): at 46.1 µM (top of the series) unless noted; further: nearly all actives have a fitted effect of over 65% in size; on growth rescue (activation): % of control where 0% means no effect
Summary of the method: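 Readout is rescue of growth in alpha-synuclein-expressing yeast, so inhibitors of toxicity appear as activators. Growth after 24 hr at 30 deg C in galactose medium is quantified by luminescence.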
Potency means the concentration at half of the fitted maximal effect; tags describe the fitted curve by direction and shape.

Row | SMILES | Potency | growth rescue (activation)
1 | COc1cc(NC(=O)[C@H]2CCCN2S(=O)(=O)c2cccc3cccnc23)cc(OC)c1OC | inactive | 
2 | CCC(C)c1ccc(NC(=O)Nc2cnccn2)cc1 (centres undefined) | inconclusive: 5.62 µM [activator, single point] | 
3 | CN(C)c1oc(-c2ccc(OCc3ccc(Cl)cc3)cc2)nc1C#N | inactive | 
4 | CC(NC(=O)CN(C)Cc1ccc(Br)cc1)c1ccccc1 (centres undefined) | inconclusive: 5.62 µM [activator, single point] | 
5 | CCc1ccc(CN(C)C(=O)c2cc(COc3ccc(-n4cncn4)cc3)on2)cc1 | inconclusive: 14.1 µM [activator, single point] | 
6 | N#Cc1c2ccc(O)cc2n2ccccc12 | inconclusive: 22.4 µM [activator, single point] | 
7 | Cc1nc(SCC(=O)NC2CCCC2)c2oc3ccccc3c2n1 | inconclusive: 5.62 µM [activator, single point] | 
8 | CCOc1cccc(/C=C(/C#N)c2nc3ccccc3[nH]2)c1OCC(=O)O | inactive | 
9 | COc1cccc(NC(=O)CN(C)C(=O)CCNS(=O)(=O)c2ccc(C)cc2)c1 |  | inconclusive: 238% [activator] [at 1.84 µM]
10 | Nc1ncnc2c1ncn2[C@@H]1O[C@H](COP(=O)(O)OP(=O)(O)OP(=O)(O)OP(=O)(O)OC[C@@H]2O[C@H](n3cnc4c(N)ncnc43)[C@@H](O)[C@H]2O)[C@@H](O)[C@H]1O | active: 7.31 µM | 
11 | O=c1[nH]c2ccc(S(=O)(=O)N3CCN(C4CCCCC4)CC3)cc2[nH]c1=O | inconclusive: 5.62 µM [activator, single point] | 
12 | Oc1ccccc1C(=S)N1CCN(c2cccc(Cl)c2)CC1 | inconclusive: 17.8 µM [activator, single point] | 
13 | Cc1ccc(S(=O)(=O)N2CCOCC2)cc1NC(=O)CSc1nc(N)cc(=O)[nH]1 | inactive | 
14 | CCOc1ccc(OCC)c(S(=O)(=O)N2CCN(c3cccc(C)c3C)CC2)c1 | inconclusive: 25.1 µM [activator, single point] | 
15 | O=[N+]([O-])c1ccc(-c2cnc3ccccc3n2)cc1 | inactive | 
16 | CCOc1cc(C)c(S(=O)(=O)Nc2ccc(F)cc2)cc1C | inconclusive: 35.5 µM [activator, single point] | 
17 | Cc1ccc(C)c(S(=O)(=O)N2CCCC2CNC(=O)C(=O)Nc2ccccc2)c1 (centres undefined) | inconclusive: 11.2 µM [activator, single point] | 
18 | CCCCCn1c(SCCOCC)nc2c1c(=O)[nH]c(=O)n2C | inconclusive: 5.62 µM [activator, single point] | 
19 | O=C(NCc1ccco1)c1cc([N+](=O)[O-])ccc1N1CCCCC1 | inactive | 
20 | O=C1CC(c2ccc(F)cc2)c2cc3c(cc2N1)CCC3 (centres undefined) | inconclusive: 20 µM [activator, single point] | 
21 | CCOC(=O)N1CCN(C(=O)c2ccccc2N(C)S(C)(=O)=O)CC1 | inconclusive: 5.62 µM [activator, single point] | 
22 | O=C1CC(c2ccc(S(=O)(=O)NCCOc3ccccc3)cc2)CN1 (centres undefined) | inconclusive: 31.6 µM [activator, single point] | 

Row | SMILES | Potency | growth rescue (activation)
23 | CN1CCCC(n2nc(Cc3ccc(Cl)cc3)c3ccccc3c2=O)CC1 (centres undefined) | inconclusive: 22.4 µM [activator, single point] | 
24 | CC(=O)NNC(=O)c1csc(Cc2c(Cl)sc3ccc(Cl)cc23)n1 | inconclusive: 11.2 µM [activator, single point] | 
25 | CC(O)(c1cccnc1)c1nc(-c2ccc3ccccc3c2)cs1 (centres undefined) | inconclusive: 35.5 µM [activator, single point] | 
26 | CCc1ccccc1NC(=O)C1CCCN(c2nccc(C)n2)C1 (centres undefined) | inconclusive: 3.98 µM [activator, single point] | 
27 | CCC[C@H]1CN(c2ccccc2)C(=O)[C@@H]1CC(=O)Nc1ccccc1 | inactive | 
28 | CCn1c(SCC(=O)Nc2nc(C)c(C(=O)OC)s2)nnc1C(C)C | inconclusive: 35.5 µM [activator, single point] | 
29 | O=C(CN1CCCc2ccccc21)N/N=C/c1c(O)ccc2ccccc12 | inconclusive: 28.2 µM [activator, single point] | 
30 | CCOc1ccccc1NC(=O)c1cccc(NC(=O)C2CCCC2)c1 | inactive | 
31 | Cc1noc(/C=C/c2cccnc2)c1[N+](=O)[O-] | inconclusive: 20 µM [activator, single point] | 
32 | CC1(C(=O)Nc2cccc3c2CCCC3)CCN1C(=O)Cc1ccccc1Cl (centres undefined) | inconclusive: 14.1 µM [activator, partial curve] | 
33 | CN(CCc1ccccn1)C(=O)CCC1CCCN(C(=O)CN2CCCCCC2)C1 (centres undefined) | inconclusive: 3.16 µM [activator, single point] | 
34 | CCN1/C(=C2\OC(=S)N(C)C2=O)Sc2ccccc21 | inconclusive: 31.6 µM [activator, single point] | 
35 | O=C(c1ccc(N2CCN(C(=O)c3ccccc3Br)CC2)cc1)c1cccc(F)c1 | inactive | 
36 | Cn1c(=O)n(Cc2ccc(Br)cc2)c2ccccc21 | inconclusive: 12.6 µM [activator, partial curve] | 
37 | Cc1c(C(=O)OCC(=O)N2CCCC(C)C2)oc2ccccc12 (centres undefined) | inconclusive: 35.5 µM [activator, single point] | 
38 | O=C(O)c1[nH]n(-c2ccc(S(=O)(=O)O)cc2)c(=O)c1N=Nc1ccc(S(=O)(=O)O)cc1 | inactive | 
39 | O=C(CSc1cccc[n+]1[O-])c1ccccc1Br | inconclusive: 35.5 µM [activator, single point] | 
40 | CCCn1cnc2c(SCc3ccccc3Cl)nc(N)nc21 | inconclusive: 5.62 µM [activator, single point] | 
41 | CS(=O)(=O)N(CC(=O)NCc1ccc2c(c1)OCO2)Cc1ccc(Cl)cc1 | inconclusive: 31.6 µM [activator, single point] | 
42 | CCOC(=O)C(/C=N/c1cc(C)nn1-c1ccccc1)=C(\C)O | inactive | 
43 | Cc1cc(C(F)(F)F)n2nc(-c3cnn(C)c3C(F)(F)F)c(Br)c2n1 | inactive | 
44 | Cc1cc(Cl)ccc1C(=O)C1CCCN(C(=O)c2snnc2C)C1 (centres undefined) | inconclusive: 22.4 µM [activator, single point] | 
